Test results published in the supplement of paper PMC10126150.
Sequences with one replicate were seen in a single cluster, so their values are uncertain.

System: ATP
Assay: switch fluorescence ratio, 500 uM ATP over buffer (Cy3 cluster intensity, sum of 5 cycles each) (fold (ratio)); higher = stronger signal-on switching upon ATP binding; sequences stand for … in TCGTCGGCAGCGTCAGATGTGTATAAGAGACAGTTTTTTTTTTTTTTTTTTTTTTTTT…TC
Settings: aptamer strand: ATP DNA aptamer (quencher-CACCTGGGGGAGTATTGCGGAGGAAGG + anchor), 100 nM annealed; ATP concentration: 500 uM; one replicate
Outline: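 Five buffer/ATP imaging cycles were run on Cy3-labelled switching-strand clusters on a modified Illumina MiSeq flow-cell, with NaOH stripping and re-annealing between cycles. In each cycle, clusters annealed to 100 nM quencher-labelled ATP aptamer were imaged in selection buffer, then after 15 min with 500 uM ATP at 22 °C. Per cluster, the fluorescence ratio is summed target-cycle over summed buffer-cycle Cy3 intensity, averaged per switch-domain sequence. Only clusters within 100-1000 RFU were kept.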
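Note: ATP exposure 15 min at 22 °C before imaging.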

Q: CACATGGACT was tested. Which switch fluorescence ratio did it give?
A: 1.04

Q: Which switch fluorescence ratio does the source give for GATAAGTCCT here?
A: 1.03

Q: How did the switch fluorescence ratio turn out when TAAGGAGGGC was run?
A: 1.09

Q: How did the switch fluorescence ratio turn out when GGGGTCGCTC was run?
A: 0.985

Q: Which switch fluorescence ratio does the source give for AAGTATCCA here?
A: 0.98

Q: With CAGCGGGATG as the sequence, how does the switch fluorescence ratio read?
A: 0.996

Q: How did the switch fluorescence ratio turn out when CACTGTATGG was run?
A: 1.2

Q: GATCTCGTTA was tested. Which switch fluorescence ratio did it give?
A: 0.985

Q: How did the switch fluorescence ratio turn out when GAGATTCTGC was run?
A: 0.988

Q: CCTGCTATCC was tested. Which switch fluorescence ratio did it give?
A: 2.66

Q: With AAATCGTAAG as the sequence, how does the switch fluorescence ratio read?
A: 1

Q: For CAGTATAGTA, which switch fluorescence ratio is on record?
A: 0.969

Q: Which switch fluorescence ratio does the source give for CGGGCGACTG here?
A: 1.02

Q: For ACTATAGGCG, which switch fluorescence ratio is on record?
A: 0.991

Q: How did the switch fluorescence ratio turn out when TGGCGCTTGC was run?
A: 0.996

Q: For GTGCCAGGAG, which switch fluorescence ratio is on record?
A: 1.05

Q: For CATAGTGAGT, which switch fluorescence ratio is on record?
A: 0.915

Q: Which switch fluorescence ratio does the source give for TGAAAAAACG here?
A: 1.02

Q: CCCCGGTGAT was tested. Which switch fluorescence ratio did it give?
A: 5.51

Q: TCGATGGGCG was tested. Which switch fluorescence ratio did it give?
A: 0.999

Q: With ATCATCGTAG as the sequence, how does the switch fluorescence ratio read?
A: 0.974

Q: For CACTGGCCCA, which switch fluorescence ratio is on record?
A: 0.965

Q: GCATAAGCCC was tested. Which switch fluorescence ratio did it give?
A: 1.05

Q: Which switch fluorescence ratio does the source give for CAACCGTCTT here?
A: 1.09

Q: How did the switch fluorescence ratio turn out when TTCTTTCCTC was run?
A: 1.01

Q: For GCCGCAAAAG, which switch fluorescence ratio is on record?
A: 2.3

Q: Which switch fluorescence ratio does the source give for TGTGACCGGC here?
A: 1.13

Q: How did the switch fluorescence ratio turn out when ATATTCTGAG was run?
A: 0.965

Q: Which switch fluorescence ratio does the source give for CACATTTTAT here?
A: 1.01

Q: With AGAGGTCTAG as the sequence, how does the switch fluorescence ratio read?
A: 1

Q: For AAAAGGTGAG, which switch fluorescence ratio is on record?
A: 0.991

Q: GCTGTCTGTC was tested. Which switch fluorescence ratio did it give?
A: 0.981

Q: For AGTCAGACTG, which switch fluorescence ratio is on record?
A: 0.948

Q: Which switch fluorescence ratio does the source give for CCGCTAGTG here?
A: 1.64

Q: Which switch fluorescence ratio does the source give for ATGCCCTAGC here?
A: 1.06

Q: CGTCAATGTT was tested. Which switch fluorescence ratio did it give?
A: 0.972

Q: How did the switch fluorescence ratio turn out when ACAAGTCGTC was run?
A: 1.01

Q: How did the switch fluorescence ratio turn out when TTGGCCTGTG was run?
A: 1.09

Q: With TCACTGGGGG as the sequence, how does the switch fluorescence ratio read?
A: 0.983

Q: ACATTATAT was tested. Which switch fluorescence ratio did it give?
A: 1.04

Q: How did the switch fluorescence ratio turn out when GGAAAGAGCC was run?
A: 0.981

Q: How did the switch fluorescence ratio turn out when CCGATATGCG was run?
A: 1.02

Q: Which switch fluorescence ratio does the source give for GTCCTAGAGG here?
A: 1.02

Q: With GGTAAGGTGG as the sequence, how does the switch fluorescence ratio read?
A: 0.988

Q: For ACTTAGGTGG, which switch fluorescence ratio is on record?
A: 1

Q: CAGCAAAACT was tested. Which switch fluorescence ratio did it give?
A: 2.13

Q: With GCTCCTAAGG as the sequence, how does the switch fluorescence ratio read?
A: 1.11

Q: GAGTCAACGA was tested. Which switch fluorescence ratio did it give?
A: 1.04

Q: For GCATCCG, which switch fluorescence ratio is on record?
A: 0.989

Q: With CCGTGTTTGG as the sequence, how does the switch fluorescence ratio read?
A: 1.03

Q: With TAGTGCTGT as the sequence, how does the switch fluorescence ratio read?
A: 0.984

Q: GCCGCTGTGT was tested. Which switch fluorescence ratio did it give?
A: 1.15

Q: How did the switch fluorescence ratio turn out when TAAGATGAAG was run?
A: 0.95

Q: With ATAGTGCAC as the sequence, how does the switch fluorescence ratio read?
A: 1.01

Q: How did the switch fluorescence ratio turn out when TTTACCGAGC was run?
A: 1.06

Q: How did the switch fluorescence ratio turn out when CTAAGGGCAT was run?
A: 1.02

Q: How did the switch fluorescence ratio turn out when GCGCGGGACC was run?
A: 1.08

Q: CTGGATACGA was tested. Which switch fluorescence ratio did it give?
A: 1.13

Q: With GCTACTCTGC as the sequence, how does the switch fluorescence ratio read?
A: 1.03

Q: With ATGCCTAAGG as the sequence, how does the switch fluorescence ratio read?
A: 0.979

Q: How did the switch fluorescence ratio turn out when TTACGATCAA was run?
A: 1.11

Q: For TACTACCAGT, which switch fluorescence ratio is on record?
A: 1.07

Q: AAGCCCCAAA was tested. Which switch fluorescence ratio did it give?
A: 1.08

Q: With GATACTCTTC as the sequence, how does the switch fluorescence ratio read?
A: 1.02

Q: Which switch fluorescence ratio does the source give for CATTCAGGGT here?
A: 1.01

Q: How did the switch fluorescence ratio turn out when GAGGCGGGGT was run?
A: 1.02

Q: Which switch fluorescence ratio does the source give for TAATTTCTCA here?
A: 1.07

Q: With GCGATAGGGG as the sequence, how does the switch fluorescence ratio read?
A: 1.08

Q: How did the switch fluorescence ratio turn out when TAATTTAGTT was run?
A: 0.998

Q: Which switch fluorescence ratio does the source give for CTCACCGTAC here?
A: 1.84

Q: GGTACTTCTT was tested. Which switch fluorescence ratio did it give?
A: 1.01

Q: TGGGTCGTCC was tested. Which switch fluorescence ratio did it give?
A: 1

Q: GAGGTCTGCA was tested. Which switch fluorescence ratio did it give?
A: 1.02

Q: AGGTGTCTAA was tested. Which switch fluorescence ratio did it give?
A: 0.952

Q: CTCGGCTCTT was tested. Which switch fluorescence ratio did it give?
A: 1.04

Q: For CTACTTCTA, which switch fluorescence ratio is on record?
A: 1.04

Q: Which switch fluorescence ratio does the source give for GATGAGGGAA here?
A: 1.01

Q: Which switch fluorescence ratio does the source give for CGAGAGCGTA here?
A: 0.987

Q: AGGGGATCTC was tested. Which switch fluorescence ratio did it give?
A: 1.03

Q: For GGTATGTTGT, which switch fluorescence ratio is on record?
A: 1.05

Q: TGTATCCCGT was tested. Which switch fluorescence ratio did it give?
A: 0.974

Q: Which switch fluorescence ratio does the source give for ACGGAAGCTT here?
A: 1.08

Q: With GGAAACAGAT as the sequence, how does the switch fluorescence ratio read?
A: 1

Q: GGCCATAGTA was tested. Which switch fluorescence ratio did it give?
A: 1

Q: CTCGTAGATG was tested. Which switch fluorescence ratio did it give?
A: 1.04
